Some of the results follow. Repeats are few or missing, and single values can be far off.
Key:
Experiment in all cases: cell count relative to DMSO control; melanoma cells; higher = more viable cells
Conditions in all cases: library dose: low library concentration; 72 h
MZ2-MEL = system: MZ2-MEL
MeWo = system: MeWo
RPMI7951 = system: RPMI7951
RVH-421 = system: RVH-421
SkMel28 = system: SkMel28
SkMel30 = system: SkMel30
SkMel5 = system: SkMel5
UACC257 = system: UACC257
UACC62 = system: UACC62
WM115 = system: WM115
WM1716 = system: WM1716
WM1745 = system: WM1745
WM3526 = system: WM3526
WM3619 = system: WM3619
WM451Lu = system: WM451Lu
SkMel2 = system: SkMel2
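Also: cell number obtained by counting DAPI-stained nuclei in high-throughput microscope images with image analysis software, screen run in 1,536-well plates.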

| SMILES | cell count (MZ2-MEL) [%] | cell count (MeWo) [%] | cell count (RPMI7951) [%] | cell count (RVH-421) [%] | cell count (SkMel28) [%] | cell count (SkMel30) [%] | cell count (SkMel5) [%] | cell count (UACC257) [%] | cell count (UACC62) [%] | cell count (WM115) [%] | cell count (WM1716) [%] | cell count (WM1745) [%] | cell count (WM3526) [%] | cell count (WM3619) [%] | cell count (WM451Lu) [%] | cell count (SkMel2) [%] |
| --- | --- | --- | --- | --- | --- | --- | --- | --- | --- | --- | --- | --- | --- | --- | --- | --- |
| Nc1cccc2c1CN(C1CCC(=O)NC1=O)C2=O (stereo unspecified) [lenalidomide] + Cc1cc(SCc2sc(-c3ccc(C(F)(F)F)c(F)c3)nc2C)ccc1OCC(=O)O [GW0742] (first compound 1 µM, partner dose 2 µM) | 101 | 100 | 102 | 102 | 96.5 | 99.9 | 99.8 | 96.1 | 110 | 102 | 108 | 104 | 91.3 | 115 | 132 |  |
| C[C@@H](N)c1ccc(C(=O)Nc2ccnc3[nH]ccc23)cc1 + Cn1cc(C2=C(c3cn(C4CCN(Cc5ccccn5)CC4)c4ccccc34)C(=O)NC2=O)c2ccccc21 [Enzastaurin] (first compound 0.4 µM, partner dose 0.8 µM) | 65.5 | 111 | 83 | 59.3 | 84.5 | 109 |  |  | 93.4 | 110 | 81.2 | 89 | 128 | 99.1 | 95.8 | 99 |
| CC(=O)c1c(C)c2cnc(Nc3ccc(N4CCNCC4)cn3)nc2n(C2CCCC2)c1=O [palbociclib] + C[As](C)SC[C@H](NC(=O)CC[C@H](N)C(=O)O)C(=O)NCC(=O)O [Darinaparsin] (first compound 0.04 µM, partner dose 0.4 µM) | 74.6 | 67.6 | 71.9 | 80.3 | 80.5 | 73.5 |  |  | 62.1 | 78.2 | 57.9 | 83.2 | 63.2 | 62 | 83.9 | 72.6 |
| Cc1cc(N2CCOCC2)cc2[nH]c(-c3c(NC[C@@H](O)c4cccc(Cl)c4)cc[nH]c3=O)nc12 + O=C(Oc1ccc([N+](=O)[O-])cc1)N1CCC(C(O)(c2ccc3c(c2)OCO3)c2ccc3c(c2)OCO3)CC1 [JZL184] (first compound 0.2 µM, partner dose 1 µM) | 98.2 | 87.7 | 102 | 89.3 | 84.7 | 97.3 | 82.5 | 80.5 | 88.1 | 96.7 | 72.5 | 73.1 | 85.9 | 80.1 | 78.3 |  |
| C[C@@H](N)c1ccc(C(=O)Nc2ccnc3[nH]ccc23)cc1 + C[As](C)SC[C@H](NC(=O)CC[C@H](N)C(=O)O)C(=O)NCC(=O)O [Darinaparsin] (first compound 0.4 µM, partner dose 0.4 µM) | 82.7 | 69 | 82.1 | 78.3 | 70.7 | 110 |  |  | 60.1 | 100 | 63.9 | 80 | 116 | 115 | 61 | 101 |
| CCc1ccc(CCOc2ccc(CC3SC(=O)NC3=O)cc2)nc1 (stereo unspecified) [pioglitazone] + O=C(Oc1ccc([N+](=O)[O-])cc1)N1CCC(C(O)(c2ccc3c(c2)OCO3)c2ccc3c(c2)OCO3)CC1 [JZL184] (first compound 2 µM, partner dose 1 µM) | 104 | 102 | 99.6 | 116 | 111 | 107 | 92.8 | 99.5 | 109 | 93 | 97.7 | 88.5 | 80.2 | 88.6 | 81.3 |  |
| CS(=O)(=O)CCNCc1ccc(-c2ccc3ncnc(Nc4ccc(OCc5cccc(F)c5)c(Cl)c4)c3c2)o1 [lapatinib] + C[As](C)SC[C@H](NC(=O)CC[C@H](N)C(=O)O)C(=O)NCC(=O)O [Darinaparsin] (first compound 0.8 µM, partner dose 0.4 µM) | 95.2 | 83.4 | 84 | 81.5 | 76.5 | 81.6 |  |  | 89.6 | 103 | 116 | 102 | 115 | 111 | 90.6 | 93.7 |
| O=C(Oc1ccc([N+](=O)[O-])cc1)N1CCC(C(O)(c2ccc3c(c2)OCO3)c2ccc3c(c2)OCO3)CC1 + O=c1cc(-c2cccc3c2Sc2ccccc2S3)oc(N2CCOCC2)c1 [KU55933] (first compound 1 µM, partner dose 1 µM) | 101 | 97.7 | 102 | 106 | 92.6 | 98.2 | 91.1 | 94.8 | 83.9 | 106 | 107 | 104 | 100 | 91.9 | 111 |  |
| Cc1cc(SCc2sc(-c3ccc(C(F)(F)F)c(F)c3)nc2C)ccc1OCC(=O)O + CCCCCCCCCCCC1=C(O)C(=O)C=C(O)C1=O [Embelin] (first compound 2 µM, partner dose 1.2 µM) | 103 | 107 | 94.3 | 108 | 90.9 | 112 | 102 | 89.8 | 103 | 103 | 114 | 95.7 | 115 | 119 | 98.9 |  |
| C/C(O)=C(\C#N)C(=O)Nc1cc(Br)ccc1Br + COc1cc(N2CCC(N3CCN(C)CC3)CC2)ccc1Nc1ncc(Cl)c(Nc2ccccc2S(=O)(=O)C(C)C)n1 [NVP-TAE684] (first compound 2 µM, partner dose 0.08 µM) | 95 | 79.2 | 77.7 | 106 | 83 | 83.3 | 70.3 | 78.7 | 88 | 90.7 | 101 | 84.2 | 85.2 | 91.6 | 108 |  |

Reference: the supplement of paper PMC4604168 (melanoma cell lines)
